Positions count from the first letter of the chain named. Numbers in names are those of the source. Results are given in words; binding and its absence hold for the method and conditions named. Binding seen in cells or lysates may run through a third protein. Some results given as binding are weak or reduced against the parent protein; the word gives no strength. Sequences can lack the tags named with a protein.
B1: Flag-SHPWT (small heterodimer partner, wild type) (protein, UniProt Q15466 1-257)
chain: MSTSQPGACPCQGAASRPAILYALLSSSLKAVPRPRSRCLCRQHRPVQLCAPHRTCREALDVLAKTVAFLRNLPSFWQLPPQDQRRLLQGCWGPLFLLGLAQDAVTFEVAEAPVPSILKKILLEEPSSSGGSGQLPDRPQPSLAAVQWLQCCLESFWSLELSPKEYACLKGTILFNPDVPGLQAASHIGHLQQEAHWVLCEVLEPWCPAAQGRLTRVLLTASTLKSIPTSLLGDLFFRPIIGDVDIAGLLGDMLLLR
B2: Flag-SHP170N (SHPK170N) (protein, UniProt Q15466 1-257)
chain: B1 chain with K170N
B3: Flag-SHPK170R (protein, UniProt Q15466 1-257)
chain: B1 chain with K170R
B4: Flag-SHP38H (SHP R38H) (protein, UniProt Q15466 1-257)
chain: B1 chain with R38H
B5: Flag-SHPG171A (protein, UniProt Q15466 1-257)
chain: B1 chain with G171A

Key:
[1] = target: GST-p53 (UniProt P04637); assay: co-IP; 293T cells co-transfected with Flag-SHP variants and GST-p53; whole cell lysates immunoprecipitated with anti-GST antibodies, SHP detected with anti-Flag
[2] = target: Myc-p53 (UniProt P04637); assay: co-IP; Hela cells co-transfected with Myc-p53 and Flag-SHP variants; co-IP and Western blot with corresponding antibodies

| Binder | binding [1] | binding [2] |
| --- | --- | --- |
| B1 | binds | binds |
| B2 |  | binds |
| B3 | binds |  |
| B4 |  | binds |
| B5 |  | no binding |

— paper PMC3380837
